In PubChem BioAssay AID1346428 (National Center for Advancing Translational Sciences (NCATS), 2018):
Among all 48,000 compounds or so, about 1,200 (2.5%) were called active. About 2% were inconclusive and are not listed.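 How the source made its calls: active means activation of at least 60% and not above a set upper limit (about 1 call in 100 departs from these limits); inconclusive means activation of 40% to 60%, or above that upper limit; inactive means activation under 40%.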 Some of the results follow.

biological target: Probable G-protein coupled receptor 32 (Homo sapiens) (UniProt O75388); assay: qHTS for Agonists of Human Resolvin D1 Receptor DRV1; conditions: CHO-K1 GPR32 beta-arrestin PathHunter luminescence, 90 min; at 76.9 µM; stronger effect = higher value; zero percent set by DMSO-only wells; further: 0% is about no effect
Procedure, shortened: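 Readings come from a cell-based beta-arrestin complementation format: CHO-K1 GPR32 stable cells (2,500/well) treated 90 min with compounds, then beta-Gal substrate added for 1 h before chemiluminescence imaging.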

UniProt O75388, sequence (O75388 whole entry, looked up): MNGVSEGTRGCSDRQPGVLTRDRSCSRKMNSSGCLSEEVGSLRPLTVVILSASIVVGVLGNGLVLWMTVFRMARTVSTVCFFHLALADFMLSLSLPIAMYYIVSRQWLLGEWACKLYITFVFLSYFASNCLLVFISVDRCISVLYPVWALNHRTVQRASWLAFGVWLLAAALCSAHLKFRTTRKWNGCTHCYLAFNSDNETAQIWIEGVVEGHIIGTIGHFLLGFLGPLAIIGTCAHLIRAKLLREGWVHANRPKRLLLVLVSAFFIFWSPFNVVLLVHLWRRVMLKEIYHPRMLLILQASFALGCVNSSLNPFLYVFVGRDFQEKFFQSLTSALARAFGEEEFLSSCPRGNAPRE

Row | SMILES | activation
1 | CCC(CN)=C(c1ccccc1)c1ccccc1 | inactive: 6.91%
2 | Cc1ccccc1NC(=O)C1CCN(S(=O)(=O)c2c(C)noc2/C=C/c2ccco2)CC1 | inactive: -22.6%
3 | COc1ccc(C(=O)NCc2ccc3c(c2)CCN3C(C)=O)c(OC)c1 | inactive: -0.363%
4 | CCc1ccccc1NC(=O)Cn1nc(CC)n2c(cc3sccc32)c1=O | inactive: -3.33%
5 | CCC(=O)OC1=C(C(C)=O)N(Cc2ccccc2)S(=O)(=O)c2ccccc21 | inactive: -16.4%
6 | Cc1ccc(Cn2c(SCc3ccc(C(=O)N4CCCCC4)cc3)nc3ccncc32)cc1 | inactive: 7.54%
7 | CCc1ccccc1N1C(=O)CN(S(=O)(=O)CC)CC1(C)C(=O)NC1CCCCC1 (stereo not given) | inactive: -7.6%
8 | NC(=O)c1ccc([N+](=O)[O-])cc1Cl | inactive: -8.38%
9 | Cc1ccc(-c2c3c(=O)n(C)c(=O)n(C)c3c3n2-c2ccccc2NC3c2ccc(C)cc2O)cc1 (stereo not given) | inactive: -0.68%
10 | COc1ccc(-c2cc(C(=O)N3CCCCC3C)no2)cc1OC (stereo not given) | inactive: -24.8%
11 | Cc1ccc(Cl)cc1N1CCN(S(=O)(=O)c2cn(C)c(C)n2)CC1 | inactive: 0.18%
12 | O=C(COc1ccccc1)Nc1nnc(S(=O)(=O)Nc2ccccc2)s1 | inactive: 8.67%
13 | COc1ccc(C(=O)c2sc3nc4c(c(C(F)(F)F)c3c2N)CN(C(C)=O)CC4)cc1OC | inactive: 22.4%
14 | CCOc1ccccc1C1C(C(=O)Nc2ccccc2)=C(C)Nc2nc(SCC(=O)c3ccc(C)cc3)nn21 (stereo not given) | inactive: -15.7%
15 | CC1CCCCN1CCCNC(=O)CN1C(=O)c2cccnc2Oc2ccc(Cl)cc21 (stereo not given) | inactive: 0.555%
16 | O=C(c1ccc(Cl)cc1)N1CCN(CCc2ccncc2)CC1 | inactive: -9.44%
17 | CCOc1ccccc1NC(=O)Nc1nnc(N2CCCC(C)C2)s1 (stereo not given) | inactive: -3.49%
18 | O=C1OCCN1/N=C/c1ccc([N+](=O)[O-])o1 | inactive: 20.3%
19 | Cc1ccc(-c2nnc(Nc3cccc(Cl)c3)c3ccccc23)cc1S(=O)(=O)N1CCN(C)CC1 | inactive: -9.19%
20 | CCN(Cc1ccccc1)c1ncnc2c1cnn2-c1ccc(F)cc1 | inactive: 5.72%
21 | O=C(Nc1ccc(Oc2ccc(Cl)cc2)c(Cl)c1)c1cc(I)cc(I)c1O | inactive: -5.44%
22 | COc1ccc(C(=O)NCCn2cc(SCc3ccc(C(F)(F)F)cc3)c3ccccc32)cc1OC | inactive: 7.39%

Row | SMILES | activation
23 | Cc1cccc(NC(=O)CSC2=Nc3ccccc3C3=NC(CC(=O)NCc4cccs4)C(=O)N23)c1 (stereo not given) | inactive: -25.1%
24 | COc1cccc(CNC(=O)C2CCCN(S(=O)(=O)N(C)c3ccc(F)cc3)C2)c1OC (stereo not given) | inactive: 6.31%
25 | COc1ccc(CNC(=O)CCCn2nc(C)n3c(cc4sccc43)c2=O)cc1 | inactive: 2.74%
26 | COc1ccccc1/C=C/c1nc(C#N)c(NC2CCCCC2)o1 | inactive: -13.1%
27 | COCCn1c(C)cc(O)c(C(c2ccccc2OC)N2CCN(c3ccccc3)CC2)c1=O (stereo not given) | inactive: -8.9%
28 | CCOC(=O)c1cnc2ccc(Br)cc2c1NCCN1CCOCC1 | inactive: 22.2%
29 | Cc1ccc(NC(=O)CN2C=NS(=O)(=O)c3ccccc32)cc1 | inactive: 28.3%
30 | CCOC(=O)COc1ccc(CC)cc1C(=O)c1ccn2nc(-c3ccc(F)cc3)cc2n1 | inactive: -22.8%
31 | COc1ccc(-c2noc(CC(=O)N(C)c3cccc(C)c3)n2)cc1 | inactive: -16.4%
32 | COc1ccc(C(=O)c2cn(Cc3ccccc3F)c3cc4c(cc3c2=O)OCCO4)cc1OC | inactive: -10.8%
33 | O=C(Nc1ccc2c(c1)CCCN2C(=O)c1cccs1)c1ccc(F)c(F)c1 | inactive: 10.9%
34 | COc1ccc(NC(=O)CSc2oc(-c3cccs3)nc2S(=O)(=O)c2ccccc2)c(OC)c1 | inactive: 12.2%
35 | Cc1ccc(Cl)cc1N1CCN(C(=O)CCS(=O)(=O)c2cc(Br)cc3c2N(C(=O)C2CC2)CC3)CC1 | inactive: -16.8%
36 | Cc1ccc(N2CC(NC(=O)c3ccccc3C(F)(F)F)CC2=O)cc1C (stereo not given) | inactive: -2.07%
37 | COc1ccc(Cl)cc1S(=O)(=O)Nc1ccc2[nH]c(=O)[nH]c2c1 | inactive: -9.44%
38 | Clc1ccc2c(c1)-n1cc(-c3ccccc3)nc1CO2 | inactive: 14.5%
39 | CCc1ccc(S(=O)(=O)c2cn(Cc3ccccc3)c3cc(N4CCCC4)c(F)cc3c2=O)cc1 | inactive: 3.4%
40 | O=C(Nc1ccc(C(=O)OCc2cc(=O)n3nc(C4CC4)sc3n2)cc1)c1ccccc1 | inactive: -6.18%
41 | Cc1ccc(CCNC(=O)Cn2c(-c3cccs3)cc3ccccc32)cc1 | inactive: -9.83%
42 | Cc1cccc(CNC(=O)c2cc3cc(S(=O)(=O)N4CCCCC4)ccc3n2C)c1 | inactive: -13.5%
43 | COc1cc(NC(=O)CCN2CCN(CCO)CC2)cc(OC)c1 | inactive: 5.4%
44 | COc1cc(CN(C(=O)COc2ccc(F)cc2)c2ccccn2)cc(OC)c1OC | inactive: -10.4%

Row | SMILES | activation
45 | CCOc1ccc(OCC(=O)Nc2ccc(S(=O)(=O)Nc3cc(C)on3)cc2)cc1 | inactive: 1.06%
46 | Cc1ccc(C)c(N2CCN(C(=O)c3cc(C)nc4c3c(C)nn4-c3ccccc3)CC2)c1 | inactive: -23.1%
47 | CCCc1cc(=O)n2[nH]c(NCc3c(F)cccc3Cl)nc2n1 | inactive: 5.34%
48 | CCc1nn(CC(=O)NCCc2ccc(SC)cc2)c(=O)c2cc3sccc3n12 | inactive: -7.85%
49 | Cc1nc2cc(-c3cccc(F)c3)nn2c(C)c1CCC(=O)NCCc1ccccc1 | inactive: 29.6%
50 | COc1ccc(N2CCN(S(=O)(=O)c3ccc4c(c3)C(C(C)C)C(=O)N4)CC2)cc1 (stereo not given) | inactive: 5.94%
51 | CCOC(=O)COc1ccc(-c2nnn(CC(=O)Nc3ccccc3)n2)cc1 | inactive: -4.25%
52 | Cc1ccc(NC(=O)c2ccc(=O)n(CC(=O)Nc3ccccc3)n2)cc1 | inactive: -5.28%
53 | Cc1sc2c(c1C)c(=O)n(CCc1ccccc1)c(=O)n2Cc1ccc(C(C)(C)C)cc1 | inactive: 12.4%
54 | Cc1ccc(C)c(NC(=O)C2CCN(S(=O)(=O)c3c(C)noc3/C=C/c3cccs3)CC2)c1 | inactive: -22.2%
55 | Cn1c(/C(C#N)=C/c2ccccc2Br)nc2ccccc21 | inactive: -34.1%
56 | CCn1c(CNC(=O)c2ccc(OC)cc2)nnc1SCC(=O)Nc1cc(C)ccc1C | inactive: 6.04%
57 | CCc1c(C)c2ccc(O)c(CN3CCN(c4ccc(F)cc4)CC3)c2oc1=O | inactive: 0.573%
58 | COc1ccccc1C(=O)NCc1nc2cccnc2n1Cc1ccc(F)cc1 | inactive: -16.9%
59 | CCc1cccc(NS(=O)(=O)c2ccc3c(c2)CC(C)N3C(=O)C2CC2)c1 (stereo not given) | inactive: 12.8%
60 | COc1ccc(S(=O)(=O)N2Cc3ccccc3CC2C(=O)Nc2cc(Cl)ccc2Cl)cc1 (stereo not given) | inactive: -0.616%
61 | COc1ccc(Cl)cc1NC(=O)CSc1nccn1-c1ccc(Cl)cc1 | inactive: -7.59%
62 | CCOCN(C(=O)Cn1c(COC)nc2ccccc21)c1c(C)cccc1CC | inactive: -1.35%
63 | O=C1OC(C(=O)Nc2ccc(Cl)c(C(F)(F)F)c2)Cc2ccccc21 (stereo not given) | active: 80%
64 | COc1ccccc1CNC(=O)c1ccc(N2Cc3cccc(OC)c3Oc3ncccc32)s1 | inactive: -1.42%
65 | COc1ccc(-c2noc(-c3ccc(N4CCCCC4C)c([N+](=O)[O-])c3)n2)cc1OC (stereo not given) | inactive: 10.7%
66 | CC(C)(C)OC(=O)N1CCC(c2nnc(SCc3ccccc3)o2)CC1 | inactive: 17.5%

Row | SMILES | activation
67 | Cc1cc(NC(=O)COc2ccccc2)cc(-c2nc3ccccc3o2)c1O | inactive: -7.92%
68 | CCCN1C(=O)C(Cc2nc3ccccc3c(=O)n2-c2cccc(C)c2)c2ccccc21 (stereo not given) | inactive: -28.2%
69 | Cn1ncc(C(=O)N2CCN(c3ccc(F)cc3)CC2)c1C1CCN(C(=O)OC(C)(C)C)CC1 | inactive: -11.9%
70 | CCCn1c(-c2cccc(Br)c2)nc2ccccc21 | inactive: 43.5%
71 | Cc1cc(C)cc(NC(=O)C2CCCN2S(=O)(=O)c2cccc3nsnc23)c1 (stereo not given) | inactive: -5.59%
72 | Cc1ccc(C2=CC(c3c(F)cccc3Cl)n3ncnc3N2)cc1C (stereo not given) | inactive: 20%
73 | O=C(CSc1nnc2[nH]c(=O)cc(-c3ccccc3)n12)Nc1ccc(F)cc1F | inactive: 2.36%
74 | COc1cccc(C2C(C(=O)Nc3ccccc3)=C(C)Nc3nc(-c4ccccc4)nn32)c1OC (stereo not given) | inactive: -12.3%
75 | CCOC(=O)c1ccc(CN(Cc2ccccc2C)S(=O)(=O)c2ccc(C(C)(C)C)cc2)cc1 | inactive: -28.2%
76 | Cc1ccc(C(=O)n2nc(C)c(S(=O)(=O)N3CCCCCC3)c2C)cc1 | inactive: -5.81%
77 | Cc1ccc(C)c(CN2CCC(CNC(=O)c3cc4ccc5cccnc5c4[nH]3)CC2)c1 | inactive: 2.34%
78 | COc1ccc(CNc2nc3c(c(=O)n(C)c(=O)n3C)n2Cc2ccccc2Cl)cc1 | inactive: -12.7%
79 | COc1ccc(C)cc1NC(=O)c1ccc2c(c1)CCN2S(=O)(=O)c1ccc(Cl)cc1 | inactive: -10.3%
80 | Cc1cccc(-c2noc(-c3ccc(N4CCN(C)CC4)c([N+](=O)[O-])c3)n2)c1 | inactive: 0.421%
81 | CCOc1ccc(C2C(=O)N(C3CCCCC3)CC(=O)N2C2CCCC2)cc1OC (stereo not given) | inactive: -15.6%
82 | COc1cc(NC(=O)Cc2c(C(=O)O)c(C)cn2C)cc(OC)c1 | inactive: -5.18%
83 | Cc1ccc2c(c1)N(C(=O)N1CCC(C(=O)NC3CCCCCC3)CC1)CC(C)O2 (stereo not given) | inactive: -3.06%
84 | COc1ccc(/C=C/C(=O)Nc2sc3c(c2C(N)=O)CCC(C)C3)cc1OC (stereo not given) | inactive: 33.6%
85 | CNC(=O)c1ccc(Nc2nnc(-c3ccc(C)c(S(=O)(=O)N4CCCCC4)c3)c3ccccc23)cc1 | inactive: 3%
